Measurements from the supplement of paper PMC3334620.
Over roughly 33,000 sequences, “E-score (-0.5 to 0.5)” has its median near -0.021; the highest 2% begin near 0.32. This is one part of the list.

molecular target: T1, Zap1 (UniProt P47043); experiment: PBM E-score (8-mer binding enrichment) (E-score (-0.5 to 0.5)); higher = stronger / more preferred TF binding; most listed sequences are background and not binding sites; details: protein concentration: 200 nM; construct: GST-full length
T1 sequence: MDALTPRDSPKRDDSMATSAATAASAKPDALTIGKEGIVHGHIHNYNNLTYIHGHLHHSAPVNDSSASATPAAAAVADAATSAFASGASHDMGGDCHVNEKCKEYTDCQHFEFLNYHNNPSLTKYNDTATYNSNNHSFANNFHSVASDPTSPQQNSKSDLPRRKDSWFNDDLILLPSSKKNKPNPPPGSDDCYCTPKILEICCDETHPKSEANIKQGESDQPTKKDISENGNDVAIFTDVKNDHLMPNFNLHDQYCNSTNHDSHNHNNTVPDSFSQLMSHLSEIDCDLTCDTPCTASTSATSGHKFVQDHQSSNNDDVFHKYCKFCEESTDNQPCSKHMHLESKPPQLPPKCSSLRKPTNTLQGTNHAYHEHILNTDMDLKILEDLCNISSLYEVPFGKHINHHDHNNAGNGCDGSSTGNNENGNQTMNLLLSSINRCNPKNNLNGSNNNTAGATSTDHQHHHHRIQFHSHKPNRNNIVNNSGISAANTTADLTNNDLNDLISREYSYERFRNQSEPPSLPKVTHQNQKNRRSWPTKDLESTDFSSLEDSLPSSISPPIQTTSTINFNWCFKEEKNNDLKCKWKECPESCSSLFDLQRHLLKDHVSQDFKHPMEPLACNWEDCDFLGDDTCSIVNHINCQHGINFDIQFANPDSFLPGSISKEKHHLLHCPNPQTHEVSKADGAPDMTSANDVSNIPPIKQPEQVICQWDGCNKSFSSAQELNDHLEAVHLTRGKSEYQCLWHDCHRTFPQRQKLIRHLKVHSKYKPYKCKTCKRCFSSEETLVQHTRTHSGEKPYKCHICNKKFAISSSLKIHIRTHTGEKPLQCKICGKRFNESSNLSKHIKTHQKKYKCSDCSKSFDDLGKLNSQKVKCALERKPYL
In short: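 Universal all-10-mer Agilent arrays, double-stranded by primer extension on fresh or once-stripped slides, were probed with about 100-200 nM GST-tagged yeast transcription factors made by PURExpress. Fluorescent anti-GST detected bound protein, and masliner normalised the scans. E-scores from the Universal PBM Analysis Suite were given to each ungapped eight-base word pooled with its reverse complement.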

Sequence	PBM E-score
CACTACGG	-0.0708
AGTGACGG	-0.00179
ACTTTGCC	-0.129
AGAGAAAA	0.126
GTATATAA	0.252
ATTGGACG	-0.134
ATTTCGGC	-0.0784
CCCTTTGC	0.206
AGTGTTTA	0.203
CAGCTGCC	-0.2
AGCCAAGA	-0.112
AACTTAGC	-0.18
ACAATCCA	0.0725
AGATAAAG	-0.0279
GGATTGCC	-0.235
ATTTAAAT	0.0468
ACACGAGC	-0.14
ATGACTCG	-0.115
CAAGCATG	-0.107
ACCTTAAT	0.302
CAATTCAA	-0.0242
AATCGGGC	-0.0801
CATTCGCG	0.00569
CGACGGGC	-0.0628
CTAACGGC	-0.0798

Sequence	PBM E-score
AGAGGCAT	-0.0756
AGACATAC	-0.0158
CGGATTTA	-0.0245
CCAGCAAC	0.0673
ATGCATCG	0.00143
AAAGAGAC	0.0611
GAATGTTA	0.0425
AGTGTGAA	-0.13
AGCGTCCG	-0.24
AATTTAGG	0.145
ACGGCGAC	0.0079
ACTCCGGC	-0.151
GATGCTAA	-0.0599
AAGCATAA	0.0593
GACAACTA	0.0846
ATCGTAGC	-0.257
GATTGGCA	-0.0646
GCCCTCGA	-0.145
CGTAGGCC	-0.177
AGCGTATC	-0.252
AGCTAGAC	-0.257
ACGAGCCT	-0.253
ACCAGCAA	0.26
CTACCCTC	0.35
GCACCCAA	0.103

Sequence	PBM E-score
CTAAGCAG	-0.0743
ATGGGTTG	0.234
TCAATCCA	0.0709
GCGATCAA	0.00263
GTCATGTA	0.021
ATGAGATA	0.167
TCCGAGGA	-0.279
CCCGTCTC	-0.236
CCGGTCCG	-0.00084
GGACTTAC	-0.127
GAATGGCC	0.188
CTCCGGTC	-0.0553
CATCGAGC	-0.203
CAGTCGTC	-0.106
CCTCCTGA	0.0897
CATTCAAG	0.116
CTACTTAA	-0.137
GAGTATGC	-0.0378
CCTCCGTA	-0.123
AGTCCTAG	-0.122
GGCTCACA	-0.157
GACACGTA	-0.148
CATGTCGG	-0.0655
CAGCGTAG	-0.16
AAGGACCG	-0.077

Sequence	PBM E-score
AGCGTCTC	-0.211
ACCGTGAC	0.173
ACTTGACC	0.1
TCCATACA	-0.014
AAAAATGG	0.192
CGTGGTAC	0.103
TATTTCCA	0.0559
AGAAGACA	-0.291
CGGAGCCC	-0.303
CTATAGCA	0.0514
AGGAGAGC	-0.278
AAGCGTTG	-0.207
ATACAGTA	0.0214
CAGCCGCG	-0.108
CCGGGCAG	-0.0902
CGCGACGA	0.0002
CAAGCTAG	-0.22
CAAACACA	0.136
AGAGTAGA	0.107
AGGTCGCC	0.0624
CACGTTCC	-0.136
CATCTAGC	-0.194
ACCGGTTC	-0.0449
ATGAAGCG	-0.212
AGGCAAGA	0.0461

Sequence	PBM E-score
AAACTTAT	0.19
CTTTATTA	0.159
CATCCGCA	-0.0365
CGACGACG	-0.229
TGGGTCAA	0.0925
GAGAGTTA	0.0524
CGAAAATA	0.16
ACTCGCGC	0.0479
ATCTCTTC	-0.12
AGATCAGC	-0.147
CCATTACC	0.298
GATTTTGA	0.203
CACGGCCG	0.0275
AATTTATG	0.201
AGGACGAC	-0.162
CATACGCA	-0.0546
GTTGATGA	0.0344
CATTCTCA	0.0502
ACCTCACC	0.052
TATATAAA	0.22
ACTCATGA	-0.0211
CCAATGGG	-0.00785
TATAATAA	0.256
AGACCTTA	0.229
AGATTACG	0.0995

Sequence	PBM E-score
TTTCCAAA	0.114
ACATGCCC	-0.248
AGGTCTAA	0.145
ACCACGGT	0.121
CCCGTAGA	-0.246
ACAATCGC	0.0402
AAATATGT	0.0661
CAAGTCCG	-0.188
AAAATACT	-0.0706
ATATTCAG	0.0444
ATGAGTCA	-0.0894
CCCACCAG	0.0873
GTCAGCGA	-0.0372
ACGGGACG	-0.114
AATCAGGG	0.00907
ATGAATTG	0.0552
GCACCCCA	0.276
TGTGAACA	-0.0338
CGGGTCAA	0.163
GTGTTGGA	-0.0142
CACCTTAA	0.207
TACGTAAA	0.0639
CATCGTAC	0.02
GTCGACAC	0.126
AATTATGG	0.0545

Sequence	PBM E-score
CCAGCCCC	-0.157
TGGTCAAA	0.265
CCGTTAGG	0.182
AGGCCAAT	-0.116
AGCTAACA	-0.113
ATCCCTAC	-0.023
GAGAGGGA	-0.285
CAATAGAC	-0.1
ACATCCCA	-0.0423
CGACCCTC	0.153
GGCTTTGA	0.00037
AAGGCGTG	-0.19
AACTAAGG	0.017
GACGCCCA	0.029
AGGCGAAC	-0.116
CTAATAAA	0.119
GAGAAGCA	-0.207
GCTAAGTA	-0.0328
CCTTTGCA	0.0267
AGCTGACA	0.00773
AGCGGCCT	0.1
CCGTATTC	0.0688
